Source: the supplement of paper PMC4967469

Legend:
Assay in all cases: Viability of human cancer cell lines after 72 h of drug (GDSC screen)
[1] = compound: Cc1ccc(NC(=O)c2cccc(C(C)(C)C#N)c2)cc1Nc1ccc2ncn(C)c(=O)c2c1 [AZ628]; settings: top dose 4 µM; top dose inferred
Protocol: (§1)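 Human cancer cell lines in 384-well plates, medium with 10% serum, drug for 72 h over a 256-fold dose range (nine 2-fold or five 4-fold steps up to the top dose). Adherent lines were fixed and stained with the nucleic acid dye Syto60, suspension lines read with resazurin; signal relative to control wells, capped at 0 and 100%. One two-parameter sigmoid per drug and line, fitted in a mixed model over all curves with the slope shared within a line.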

[2] = compound: Cn1cnc2c(F)c(Nc3ccc(Br)cc3Cl)c(C(=O)NOCCO)cc21 [AZD6244]; settings: top dose 4 µM; screen: GDSC drug entry 1498; top dose inferred
Protocol: as §1

[3] = compound: N#CC(c1ccnc(NCCc2cccnc2)n1)c1nc2ccccc2s1 [AS601245]; settings: top dose 8 µM; top dose inferred
Protocol: as §1

[4] = compound: NC(=O)C1CCCc2c1[nH]c1ccc(Cl)cc21 [EX-527]; settings: top dose 20 µM
Protocol: as §1

[5] = compound: Nc1ccc(C(=O)Nc2cccc(-c3nc(N4CCOCC4)c4oc5ncccc5c4n3)c2)cn1 [YM201636]; settings: top dose 5.12 µM; top dose inferred
Protocol: as §1

Row | Cell Line | AUC [1] | IC50 [1] [nM] | AUC [2] | IC50 [2] [nM] | AUC [3] | IC50 [3] [µM] | AUC [4] | IC50 [4] [µM] | AUC [5] | IC50 [5] [nM]
1 | NCI-H2227 (small cell lung carcinoma, semi-adherent) | 0.982 | > 4000 | 0.979 | > 4000 | 0.983 | > 8 | 0.986 | > 20 | 0.8 | 2860
2 | NCI-SNU-1 (stomach, suspension) | 0.592 | 451 | 0.962 | > 4000 | 0.875 | > 8 | 0.982 | > 20 | 0.771 | 2020
3 | NCI-SNU-5 (stomach, suspension) | 0.845 | 2950 | 0.926 | > 4000 | 0.939 | > 8 | 0.987 | > 20 | 0.989 | > 5120
4 | NEC8 (testis, adherent) | 0.845 | 2270 | 0.978 | > 4000 | 0.901 | 7.6 | 0.99 | > 20 | 0.857 | 3200
5 | NH-12 (neuroblastoma, adherent) | 0.965 | > 4000 | 0.916 | > 4000 | 0.89 | > 8 | 0.972 | > 20 | 0.764 | 2070
6 | NKM-1 (acute myeloid leukaemia, suspension) | 0.645 | 636 | 0.835 | 2730 | 0.74 | 2.5 | 0.984 | > 20 | 0.698 | 1170
7 | NMC-G1 (glioma, adherent) | 0.972 | > 4000 | 0.642 | 677 | 0.817 | 5.85 | 0.968 | > 20 | 0.878 | > 5120
8 | NOMO-1 (acute myeloid leukaemia, suspension) | 0.69 | 924 | 0.442 | 170 | 0.9 | > 8 | 0.946 | > 20 | 0.863 | > 5120
9 | NOS-1 (osteosarcoma, adherent) | 0.367 | 98.5 | 0.902 | > 4000 | 0.783 | 4.2 | 0.98 | > 20 | 0.787 | 2800
10 | NTERA-2 cl.D1 (testis, adherent) | 0.928 | > 4000 | 0.942 | > 4000 | 0.872 | 7.52 | 0.985 | > 20 | 0.914 | > 5120
11 | NU-DUL-1 (B-cell lymphoma, suspension) | 0.879 | 2740 | 0.992 | > 4000 | 0.874 | 5.27 | 0.989 | > 20 | 0.576 | 494
12 | OCI-AML2 (acute myeloid leukaemia, suspension) | 0.118 | 25.8 | 0.068 | 16.7 | 0.843 | 3.69 | 0.963 | > 20 | 0.868 | 2810
13 | OCI-AML3 (acute myeloid leukaemia, suspension) | 0.558 | 351 | 0.239 | 50.6 | 0.949 | > 8 | 0.985 | > 20 | 0.847 | 2980
14 | OCI-AML5 (acute myeloid leukaemia, suspension) | 0.55 | 337 | 0.803 | 1790 | 0.937 | > 8 | 0.988 | > 20 | 0.841 | 3110
15 | OCI-LY-19 (B-cell lymphoma, suspension) | 0.636 | 575 | 0.883 | 3700 | 0.849 | 5.29 | 0.985 | > 20 | 0.736 | 1410
16 | OCI-M1 (acute myeloid leukaemia, suspension) | 0.967 | > 4000 | 0.971 | > 4000 | 0.9 | 5.89 | 0.992 | > 20 | 0.884 | 3310
17 | OCUB-M (breast, adherent) | 0.959 | > 4000 | 0.98 | > 4000 | 0.619 | 1.01 | 0.977 | > 20 | 0.914 | > 5120
18 | OMC-1 (cervix, adherent) | 0.987 | > 4000 | 0.914 | > 4000 | 0.896 | > 8 | 0.987 | > 20 | 0.972 | > 5120
19 | ONS-76 (medulloblastoma, adherent) | 0.436 | 165 | 0.422 | 150 | 0.971 | > 8 | 0.983 | > 20 | 0.934 | > 5120
20 | OPM-2 (myeloma, suspension) | 0.856 | 2320 | 0.993 | > 4000 | 0.937 | > 8 | 0.994 | > 20 | 0.839 | 2610
21 | OS-RC-2 (kidney, adherent) | 0.936 | > 4000 | 0.84 | > 4000 | 0.794 | 5.73 | 0.978 | > 20 | 0.912 | > 5120
22 | OVCAR-4 (ovary, adherent) | 0.933 | > 4000 | 0.716 | 1400 | 0.798 | 6.22 | 0.971 | > 20 | 0.871 | > 5120

By IC50 is meant the dose at which the fit gives 50% viability; a limit (>, <) means that the fit lies beyond the doses tested. AUC is the area under the same curve over the 256-fold range up to the top dose, as a fraction; values near 1 show little effect. For some of these results: A top dose marked as inferred was derived from the fitted curves, not read from the paper. For some of these results: Drugs with an entry number were screened twice under separate entries, and the two screens often disagree.
